In all, about 45,000 compounds went through this assay and about 65 (0.1%) were called active. Calls follow the shape of the dose curve; as a rule, active = well fitted activation curve with a large enough effect; inconclusive = small, poorly fitted or top-dose-only effect; inactive = no such curve, though single readings can be large or run the other way. This is one part of the list.
Biological target: Galactocerebrosidase (Homo sapiens) (UniProt P54803)
Assay: A Novel Cell-Based Assay to Identify Small Molecules for B -Galactocerebrosidase; also: 0% is about no effect; nearly all actives have a fitted effect of over 65% in size
Details: 145M-Twi-hGALC-G270D cells (Twitcher mouse brain line with human GALC G270D), HMU-beta-Gal fluorescence, 48 h; series mostly up to 57.5 µM; activation: at the top concentration
In short: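 Brain-derived Twitcher mouse 145M-Twi cells stably expressing human GALC-G270D or wild-type GALC, treated live, then residual GALC activity read by fluorescence of HMU-b-Gal substrate (0.1 mM final) in citrate-phosphate buffer pH 5.2 with sodium taurocholate. Signal increase indicates enhancement.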

Chain of UniProt P54803 (P54803 whole entry, looked up): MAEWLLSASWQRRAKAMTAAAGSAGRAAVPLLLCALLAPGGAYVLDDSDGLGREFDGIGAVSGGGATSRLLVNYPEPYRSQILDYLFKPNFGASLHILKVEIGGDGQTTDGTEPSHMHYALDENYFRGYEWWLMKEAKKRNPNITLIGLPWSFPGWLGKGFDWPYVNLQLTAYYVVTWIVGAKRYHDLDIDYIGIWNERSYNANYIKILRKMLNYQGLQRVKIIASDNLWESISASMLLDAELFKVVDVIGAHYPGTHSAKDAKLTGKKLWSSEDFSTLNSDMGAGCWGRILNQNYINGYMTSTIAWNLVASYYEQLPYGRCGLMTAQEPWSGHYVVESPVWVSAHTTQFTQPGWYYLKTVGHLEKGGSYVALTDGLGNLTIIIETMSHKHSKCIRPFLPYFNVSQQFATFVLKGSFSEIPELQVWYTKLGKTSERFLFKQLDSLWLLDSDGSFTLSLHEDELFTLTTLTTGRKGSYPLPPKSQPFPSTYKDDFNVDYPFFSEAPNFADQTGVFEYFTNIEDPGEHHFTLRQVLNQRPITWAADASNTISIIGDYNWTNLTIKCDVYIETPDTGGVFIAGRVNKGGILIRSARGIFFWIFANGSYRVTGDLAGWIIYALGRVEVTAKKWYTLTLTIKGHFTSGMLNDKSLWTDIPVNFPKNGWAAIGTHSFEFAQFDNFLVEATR

Compound | activation
CN(Cc1ccccc1)C(=O)C1CCC(CNS(=O)(=O)c2ccc3c(c2)CCCC(=O)N3)CC1 (stereo not drawn) | inactive: -5.7%
Cc1ccc2nc(NC(=O)c3nc(SCc4ccccc4C)ncc3Cl)sc2c1 | inactive: 1.48%
Cc1ccc(N2CCN(C(=O)C3CCN(c4ncnc5c4nc4n5CCCCC4)CC3)CC2)c(C)c1 | inactive: -2.63%
COc1cc([C@H]2Oc3cc([C@H]4Oc5cc(O)cc(O)c5C(=O)[C@@H]4O)ccc3O[C@@H]2CO)ccc1O | inactive: 22.2%
CC(=O)N1CCC2(CC1)OC(=O)C(C)=C2C(=O)NCc1cccc(Cl)c1 | inactive: -20.8%
O=C(O)CCc1nnc2cnc3ccccc3n12 | inactive: -11.6%
Cc1ccc2ncc(C(=O)NC(C)c3ccccc3)c(=O)n2c1 (stereo not drawn) | inactive: -18.5%
Cc1ccc(CN2CCCn3nc(C(=O)NCc4cc(C)ccc4C)cc3C2=O)cc1 | inactive: -21.7%
Cc1ccc(C(=O)Nc2nnc(S(=O)(=O)N3CCN(c4ccc(F)cc4)CC3)s2)cc1 | inactive: -3.25%
O=[N+]([O-])c1cc(-c2nc(-c3ccccn3)no2)ccc1NCc1ccccc1 | inactive: -24.8%
Cc1ccc(CNC(=O)c2cnc3c(-c4ccccc4)c(C)nn3c2C)o1 | inactive: -6.88%
C[N+](C)(C)CC(O)CC(=O)[O-] (stereo not drawn) | inactive: -2.61%
Cc1ccc(N2CCN(C(=O)c3c(C)oc4ncnc(N5CCOCC5)c34)CC2)c(C)c1 | inactive: -11.8%
Cc1ccc(N2C(=O)CS(=O)(=O)C23C(=O)N(C)c2ccccc23)cc1F (stereo not drawn) | inactive: -16.5%
Cc1ccc(C)c(Nc2cc(C(=O)NCCCN(C)C3CCCCC3)c3ccccc3n2)c1 | inactive: -8.51%
COc1cc(NC(=O)NCC2CCN(Cc3ccc(C)cc3)CC2)cc(OC)c1OC | inactive: -10.1%
COCCCNC(=O)CCC(=O)NNc1nc2ccccc2c2nc(-c3ccccc3)nn12 | inactive: -10.4%
O=C(NCCc1ccccc1)C(=O)NCC(c1ccco1)S(=O)(=O)c1ccccc1 (stereo not drawn) | inactive: -6.34%
CCOc1ccc(NC(=O)CSc2nnc(-c3ccncc3)n2-c2ccccc2)cc1 | inactive: -16.6%
COCCNC(=O)CSc1nc2cc3c(cc2c(=O)n1Cc1ccc(C(=O)NCCc2ccc(OC)c(OC)c2)cc1)OCO3 | inactive: -4.18%
COc1ccc(NC(=O)C(C)n2nc(-c3cc(C)ccc3C)c3c(c2=O)CCCC3)cc1 (stereo not drawn) | inactive: -10%
CCc1cccc(NC(=O)CSc2ncc3c(n2)-c2ccccc2N(CC)S3(=O)=O)c1 | inactive: -5.69%
COc1ccc(CNC(=O)c2ccc(CSc3nc4ccncc4n3Cc3ccccc3F)cc2)cc1 | inactive: -12.5%
Nc1c[n+](N2CCOCC2)no1 | inactive: -13.4%

Compound | activation
COc1ccc(NC(=O)Cn2c(=O)n(Cc3ccccc3)c(=O)c3oc4ccccc4c32)cc1Cl | inactive: -5.94%
Cc1nc2c(C(=O)NCc3ccccc3Cl)cnn2c(C)c1Cc1ccccc1 | inactive: -11.1%
Cc1nc(N2CCCC2)ncc1C(=O)N1CCN(c2ccc(Cl)cc2)CC1 | inactive: -14.2%
Cc1ccc(C)c(-n2cc(-c3ccccc3)nc2SCC(=O)Nc2ccccc2)c1 | inactive: -10.8%
CCOc1ccc(Nc2ncnc3c2cnn3-c2ccc(F)cc2)cc1 | inactive: -11.3%
CCOC(=O)C(=O)Nc1nnc2n1CCS2 | inactive: -17.4%
CCOC(=O)c1ccccc1NC(=O)Cn1c(=O)n(CCCC(=O)NCc2ccc3c(c2)OCO3)c(=O)c2ccccc21 | inactive: 6.29%
CCCCOc1cc(C(=O)OCCN(CC)CC)ccc1N | inactive: -10.6%
Cn1cc(S(=O)(=O)N2CCCCC2)cc1C(=O)N1CCN(c2ccccc2F)CC1 | inactive: 7.65%
O=C(CSc1nc2c([nH]c3ccccc32)c(=O)n1-c1ccc(Cl)cc1)N1CCCCCC1 | inactive: -13.4%
COc1cccc(-c2csc(-c3c(N)c(C(=O)c4ccccc4)n4ccccc34)n2)c1 | inactive: -19.3%
Cc1nc2n(c(=O)c1CCN1CCC(c3noc4cc(F)ccc34)CC1)CCC[C@H]2O | inactive: -5.98% [at 23.8 µM]
CCOc1ccccc1NC(=O)CSc1ncc(S(=O)(=O)c2ccc(C)c(C)c2)c(N)n1 | inactive: 0.691%
CCSc1nnc2c(n1)OC(c1ccc(C)s1)Nc1ccccc1-2 (stereo not drawn) | inactive: 6.37%
O=C(CSc1nnc(-c2ccccc2F)o1)Nc1ccccc1Cl | inactive: -15.4%
COc1ccc(CCNC(=O)Cn2cc(S(=O)(=O)Cc3ccccc3Cl)c3ccccc32)cc1OC | inactive: -1.46%
CCOc1ccc(NC(=O)Cn2nnc(C(=O)NCCc3ccccc3)c2N)cc1 | inactive: -15.9%
COc1ccc(-c2cc(OC(=O)c3cccc(Cl)c3)c3c(C)oc(C)c3c(=O)c2)cc1 | inactive: -13.4%
COc1cc(NC(=O)N2CCC3(CC2)Nc2ccccc2-n2cccc23)cc(OC)c1OC | inactive: -39.6%
CCc1nn(CC(=O)Nc2c(C)cccc2C)c(=O)c2cc3sccc3n12 | inactive: -20.1%
O=C(CSc1nc2c([nH]c3ccccc32)c(=O)n1-c1ccccc1)Nc1ccc(Cl)c(Cl)c1 | inactive: -9.63%
COc1ccc(-c2noc(-c3ccc(NCC4CCCO4)c([N+](=O)[O-])c3)n2)cc1 (stereo not drawn) | inactive: -4.14%
CNC(=O)c1c(NC(=O)Cc2coc3ccc(C)cc23)sc2c1CCCC2 | inactive: -15.5%
O=C(NCCc1ccc(Cl)cc1)C1COc2ccccc2C1 (stereo not drawn) | inactive: -12.5%

Source: PubChem BioAssay AID1159614 (National Center for Advancing Translational Sciences (NCATS), 2016)
